Screen size: about 360,000 compounds; about 2,600 (0.72%) were called active. The inconclusive results got no clear call from the source; some entries with a clear call stand among them for comparison. Calls come from the whole dose curve; as a rule, active = well fitted inhibition curve with a large enough effect; inconclusive = small, poorly fitted or top-dose-only effect; inactive = no such curve, though single readings can be large or run the other way. A potency beside an inconclusive call is a rough fit, not a confirmed value.
Assay: Primary qHTS for Inhibitors of ATXN expression; note: nearly all actives have a fitted effect of over 55% in size
Details: HEK-293 ATXN2-luciferase reporter, luminescence, 24 h; activity change, negative = inhibition: at 57 µM (top of the series)
Procedure, shortened: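 ATXN2-luciferase reporter cells (luciferase flanked by upstream and downstream ATXN2 gene portions) were treated 24 h at 37 °C with compounds at up to 57 uM. SteadyGlo luminescence gave expression; GF-AFC fluorescence gave viability.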
In the case of CCc1nc2ccc(C(=O)Nc3cc(-c4ccccc4)ccc3OC)cn2c1N(C)Cc1ccc(Cl)cc1, the Potency is reported as inconclusive: 39.8 µM [inhibitor, partial curve, poor fit]. With C=C1C(C(=O)Nc2ccc(OCC)cc2)C1C(=O)Nc1ccc(OCC)cc1 (stereo not given) the Potency was inconclusive: 3.16 µM [inhibitor, partial curve, poor fit]. With O=C1c2cc(Cl)ccc2OC2(CCNCC2)C12CC(c1ccccc1)=NO2 (stereo not given) the Potency was inconclusive: 17.8 µM [inhibitor, partial curve, poor fit]. For O=c1c(-c2ccccc2)c1-c1ccccc1, the Potency was active: 8.91 µM. With Cc1cc2c(cc1C)N(C(=O)CCl)CCN2C(=O)CCl the Potency was inconclusive: 31.6 µM [inhibitor, single point]. For CCOc1c(CNCCSc2nnnn2C)cccc1OC, the “activity change, negative = inhibition” value was inactive: -0.837%. In the case of CCNC(=S)N/N=C/c1cccs1, the “activity change, negative = inhibition” value is reported as inactive: -5.17%. For Cc1cccc(C)c1NC(=O)C(=O)NCC(c1ccc2c(c1)OCO2)N1CCN(C)CC1 (stereo not given), the “activity change, negative = inhibition” value was inactive: -2.15%. In the case of COc1ccc(C2=CC(c3c(C)nn(-c4ccccc4)c3Cl)n3nnnc3N2)cc1OC (stereo not given), the Potency is reported as inconclusive: 17.8 µM [inhibitor, partial curve, poor fit]. With CCOC(=O)C1=C(C)NC(=O)NC1c1ccc(-c2ccc(Cl)cc2)o1 (stereo not given) the Potency was inconclusive: 33.6 µM [inhibitor, partial curve, poor fit]. With Cn1c(=O)c2[nH]c(NN=Cc3ccc(Br)cc3)nc2n(C)c1=O the Potency was inconclusive: 3.98 µM [inhibitor, partial curve, poor fit]. In the case of Cc1cccc(NC(=O)c2ccc3oc(=O)c(S(=O)(=O)c4ccc(F)cc4)cc3c2)c1C, the “activity change, negative = inhibition” value is reported as inactive: -1.61%. In the case of Cc1cc(/C=N/n2cnnc2)c(C)n1-c1ccc(OCc2ccc(F)cc2)cc1, the Potency is reported as inconclusive: 39.8 µM [inhibitor, single point]. With Cc1cc(C(=O)CSc2nnc(Nc3ccccc3)s2)c(C)n1CC1CCCO1 (stereo not given) the “activity change, negative = inhibition” value was inactive: 30.7%. For c1ccc2c(c1)[nH]c1c(N3CCC4(CC3)OCCO4)ncnc12, the “activity change, negative = inhibition” value was inactive: -22.2%. In the case of CCC(C)c1ccc(NC(=S)NC2CCN(Cc3ccccc3)CC2)cc1 (stereo not given), the Potency is reported as inconclusive: 31.6 µM [inhibitor, single point]. With CCN(CC)C(=O)c1cccc(-c2csc(C(C)(O)c3cccc(F)c3)n2)c1 (stereo not given) the Potency was active: 28.2 µM. In the case of CCn1c(C)c(C)c2cc(C(=O)N3CCN(c4ccccc4)CC3)ccc21, the “activity change, negative = inhibition” value is reported as inactive: 0%. With CCN(C(=O)CCS(=O)(=O)c1cc2c(cc1C)NC(=O)CO2)c1cccc(C)c1 the “activity change, negative = inhibition” value was inactive: -3.42%. With CC(=O)Oc1ccc(-c2ccc(C(=O)NCCc3ccc(S(N)(=O)=O)cc3)cc2)cc1 the Potency was inconclusive: 15.8 µM [inhibitor, partial curve, poor fit]. For COc1cc(C2=NOC(C(=O)Nc3ccc4c(c3)OCO4)C2)cc(OC)c1OC (stereo not given), the “activity change, negative = inhibition” value was inactive: 10.5%. With CCCCCCCCCCOC(=O)Cn1c(COc2ccccc2C)[n+](C)c2ccccc21 the Potency was active: 22.4 µM. With c1ccc2c(c1)oc1c(-c3cccc4nccn34)cccc12 the “activity change, negative = inhibition” value was inactive: -4.71%. For Cc1cc(N2CCN(C(=O)c3ccco3)CC2)n2nc(-c3cccc(F)c3)cc2n1, the Potency was inconclusive: 22.4 µM [inhibitor, partial curve, poor fit]. In the case of COc1ccc(NC(=O)c2cc(-c3ccc(F)cc3)no2)cc1OC, the “activity change, negative = inhibition” value is reported as inactive: 6.79%. With Cc1nn(-c2nccs2)c2c1C(=O)CC(C)(C)C2Br (stereo not given) the Potency was inconclusive: 39.8 µM [inhibitor, single point]. For CCOc1ccc(S(=O)(=O)N/N=C(\C)Cc2ccc(OC)cc2)cc1, the Potency was inconclusive: 21.2 µM [inhibitor, partial curve, poor fit]. For CCOC(=O)C1=C(C)N=c2sc(=Cc3cc(Cl)c(OCC(=O)O)c(Cl)c3)c(=O)n2C1c1cccc(OC)c1 (stereo not given), the “activity change, negative = inhibition” value was inactive: -7.72%. In the case of CCOc1ccc(-c2cn3c(n2)sc2cc(C(=O)NCCCN4CCCCC4)ccc23)cc1, the Potency is reported as inconclusive: 3.55 µM [inhibitor, full curve]. For Cc1ccc(-c2nnc(NC(=O)c3ccc([N+](=O)[O-])o3)o2)c(C)c1, the Potency was inconclusive: 35.5 µM [inhibitor, single point]. With C[C@@H](CO)NC(=O)c1ccc2c3n(nc2c1)-c1ccccc1CO3 the Potency was inconclusive: 39.8 µM [inhibitor, single point]. For FC(F)Oc1ccc(NC(=S)NNc2ccnc3cc(Cl)ccc23)cc1, the Potency was inconclusive: 12.6 µM [inhibitor, partial curve, poor fit]. In the case of O=C(Nc1ccc2ccccc2c1)c1cnccn1, the “activity change, negative = inhibition” value is reported as inactive: 29.2%. For COc1ccc(C2NC3=C(CCC3)C3(C#N)C(OC)(OC)N=C(N)C23C#N)cc1 (stereo not given), the Potency was inconclusive: 3.98 µM [inhibitor, partial curve]. With CC(C)Cn1c(CN2CCN(c3cccc(Cl)c3)CC2)nc2c1c(=O)[nH]c(=O)n2C the Potency was inconclusive: 15.8 µM [inhibitor, partial curve, poor fit]. With O=C(CSc1nc2c(c(=O)n1-c1ccc(Br)cc1)SCC2)NCC1CCCO1 (stereo not given) the Potency was inconclusive: 39.8 µM [inhibitor, single point]. With CCOC(=O)c1c(NC(=S)N2CCCCC2)sc2c1CCN(C(=O)OCC)C2 the Potency was inconclusive: 0.631 µM [inhibitor, full curve, poor fit]. For O=S(=O)(c1c(Cl)cc(Br)cc1Cl)N1CCN(C(=S)NC2CC2)CC1, the Potency was inconclusive: 39.8 µM [inhibitor, single point]. In the case of Cc1ccc(S(=O)(=O)N2C[C@@H](C)[C@]3(C2)[C@H](O)[C@H](OC(=O)Nc2cccs2)C[C@H]2C(=O)N(c4ccccc4)C(=O)[C@H]23)cc1, the Potency is reported as inconclusive: 39.8 µM [inhibitor, single point]. In the case of COc1ccccc1N1CCN(C(=O)c2ccc3nc(-c4ccco4)c(-c4ccco4)nc3c2)CC1, the Potency is reported as inconclusive: 20 µM [inhibitor, partial curve, poor fit]. In the case of COc1cc(CNCCCN2CCOCC2)cc(Br)c1OCc1ccc(Cl)cc1, the Potency is reported as active: 21.2 µM. In the case of COc1ccc(C2c3ccc4ccccc4c3Oc3ncn(CCO)c(=N)c32)cc1 (stereo not given), the Potency is reported as inconclusive: 10 µM [inhibitor, partial curve]. In the case of COc1ccccc1CNc1nc(NC(C)C)nc2cc(-c3ccccc3)sc12, the Potency is reported as active: 20 µM. In the case of O=C1C(=NO)CCc2ccccc21, the Potency is reported as inconclusive: 31.6 µM [inhibitor, single point]. For COc1ccc(NC(=O)CSc2nc(-c3ccccc3)[nH]c2-c2ccccc2)cc1OC, the Potency was inconclusive: 31.6 µM [inhibitor, single point]. With COc1ccc(CNc2ccc(S(N)(=O)=O)cc2)c(OC)c1OC the “activity change, negative = inhibition” value was inactive: 9.38%. For NNC(=O)CSc1cccc2cccnc12, the “activity change, negative = inhibition” value was inactive: 1.8%. In the case of COC1CCC(C(=O)c2ccc3nc4c(cc3c2)CCCO4)CC1 (stereo not given), the Potency is reported as active: 30.6 µM. For COC(=O)C1=C(C)N(Cc2ccccc2)C(=NCCc2cccnc2)N[C@H]1c1ccc(Br)cc1, the Potency was active: 31.6 µM. With COc1ccc(-n2cccc2/C=C/[N+](=O)[O-])cc1 the Potency was inconclusive: 39.8 µM [inhibitor, single point]. With C#CC(=O)N(c1cc(OC)ccc1OC)C(C(=O)NC1CCCC1)c1cccs1 (stereo not given) the Potency was inconclusive: 39.8 µM [inhibitor, single point]. With Cc1cc(C)nc(NS(=O)(=O)c2ccc(NC(=O)c3nc(SC(C)C)ncc3Cl)cc2)n1 the “activity change, negative = inhibition” value was inactive: -11.8%. With CC(/C=C1\SC(=O)N(CCCC(=O)O)C1=O)=C\c1ccccc1 the Potency was active: 1.26 µM. For O=C(NCCCN1CCCCC1)c1[nH]c2ccccc2c1Sc1ccc(Cl)cc1, the Potency was inconclusive: 35.5 µM [inhibitor, single point]. In the case of CCN1CCN(c2ccc(S(=O)(=O)N3CCCCC3)cc2NC(=O)/C=C/c2cccc(OC)c2OC)CC1, the “activity change, negative = inhibition” value is reported as inactive: -5.02%. For Cc1cc(C(=O)COC(=O)Cc2n[nH]c(=O)c3ccccc23)c(C)n1-c1ccc2c(c1)OCCO2, the Potency was inconclusive: 25.1 µM [inhibitor, partial curve, poor fit]. In the case of CCOc1ccc(NC(=O)Cn2c(=O)n(Cc3ccco3)c(=O)c3ccc(C(=O)NC4CCCC4)cc32)cc1, the “activity change, negative = inhibition” value is reported as inactive: 6.31%. For Cc1ccc(C2C(C#N)=C3N=C(N)c4ccccc4N3C3=C2C(=O)CCC3)cc1 (stereo not given), the “activity change, negative = inhibition” value was inactive: -19.7%. With CCOC(=O)c1ccccc1NC(=O)NCc1cccn1Cc1ccc(F)cc1 the “activity change, negative = inhibition” value was inactive: -9.78%. In the case of Cc1cc(OCc2n[nH]c(=S)n2-c2ccccc2)ccc1Cl, the “activity change, negative = inhibition” value is reported as inactive: 4.91%. With Cc1ccc(CNC(=O)NC23CC4CC(CC(C4)C2)C3)cc1 the “activity change, negative = inhibition” value was inactive: 10.2%. In the case of CC(=O)NC1=NN(C(C)=O)C(C)(CC(=O)OC(C)(C)C)S1 (stereo not given), the Potency is reported as inconclusive: 0.532 µM [inhibitor, partial curve, poor fit]. With OC(c1ccccc1)C1CN(Cc2ccccc2)CCC1(O)c1ccccc1 (stereo not given) the “activity change, negative = inhibition” value was inactive: -18.6%. In the case of CCCCNC(=O)c1sc(=S)n2c1[nH]c(=O)c1ccccc12, the “activity change, negative = inhibition” value is reported as inactive: -12.6%. With Cc1nc2ccccn2c1C(=O)CSc1ccc(Cl)cc1Cl the “activity change, negative = inhibition” value was inactive: -23.9%. For O=C(Nc1nnc(-c2ccc3c(c2)CCCC3)o1)c1ccccc1, the Potency was inconclusive: 22.4 µM [inhibitor, single point]. In the case of CCOC(=O)c1c(-c2ccncc2)csc1N, the “activity change, negative = inhibition” value is reported as inactive: 0.772%. In the case of O=C(CCCCC(=O)NN=Cc1ccccc1O)NN=Cc1ccccc1O, the Potency is reported as inconclusive: 2 µM [inhibitor, full curve, poor fit]. In the case of COc1ccccc1N(Cc1ccccc1)S(=O)(=O)c1cccc(C(=O)Nc2cc(C)ccn2)c1, the Potency is reported as inconclusive: 39.8 µM [inhibitor, single point]. For C#CCOCCOCCOCCNc1nc(N2CCN(C(=O)CCCCCCCCCCNC(=O)[C@H]([C@@H](C)CC)n3cc(CCCCCN)nn3)CC2)nc(N2CCN(C(=O)CCCCCCCCCCNC(=O)[C@H](CO)n3cc(CCCCCN)nn3)CC2)n1, the Potency was inconclusive: 35.5 µM [inhibitor, single point].
% is set by controls: 0 for no effect and ±100 for the full control effect; potency is the fitted concentration of half-maximal effect; tags give direction and shape of the fitted curve.
